# According to patent US20180305463A1 (NAVIGO PROTEINS, published 2018):
# B1: IgG binding protein SEQ ID NO: 28 (shuffle sequence IB27) (designed binder)
# chain: NAAKFDEAQQSAFYEILHLPNLTEEQRNAFIQSLKDDPSVSKEVLGEAQKLNDSQAPKASPAPSAPSACWSHPQFEK
# notes: also called CID 154256
# B2: IgG binding protein SEQ ID NO: 26 (shuffle sequence IB25) (designed binder)
# chain: NAAKHDKDQQSAFYEILHLPNLTEDQRNAFIQSLKDDPSVSKEILGEAKKLNDAQAPPASPAPSAPSACWSHPQFEK
# notes: also called CID 154254
# B3: IgG binding protein SEQ ID NO: 13 (shuffle sequence IB13) (designed binder)
# chain: PAAQHDKDQQSAFYEILHLPNLTEDQRSAFIQSLKDDPSVSKEILGEAKKLNDAQAPPASPAPSAPSACWSHPQFEK
# B4: IgG binding protein SEQ ID NO: 14 (shuffle sequence IB14) (designed binder)
# chain: PAAKHDKDQQSAFYEILHLPNLTEDQRSAFIQSLKDDPSVSKEILGEAKKLNDAQAPPASPAPSAPSACWSHPQFEK
# B5: IgG binding protein SEQ ID NO: 24 (shuffle sequence IB24) (designed binder)
# chain: NAAQHDKEQQNAFYEILHLPNLTEDQRNAFIQSLKDDPSVSKEILGEAKKLNDAQAPKASPAPSAPSACWSHPQFEK
# notes: also called CID 154253
# B6: IgG binding protein SEQ ID NO: 27 (shuffle sequence IB26) (designed binder)
# chain: NAAQHDKDQQSAFYEILHLPNLTEEQRNAFIQSLKDDPSVSKEILAEAKKLNDAQAPKASPAPSAPSACWSHPQFEK
# notes: also called CID 154255
# B7: IgG binding protein SEQ ID NO: 30 (shuffle sequence IB28) (designed binder)
# chain: VDAQHDEDQQSAFYEILHLPNLTEEQRNAFIQSLKDDPSQSAEILAEAKKLNESQAPKASPAPSAPSACWSHPQFEK
# notes: also called CID 154257
# B8: IB14 dimer (SEQ ID NO: 45) (designed binder)
# chain: MPAAKHDKDQQSAFYEILHLPNLTEDQRSAFIQSLKDDPSVSKEILGEAKKLNDAQAPPSAAPAPSAPASAAPAPAPAPAPSPAAPAASPAAKHDKDQQSAFYEILHLPNLTEDQRSAFIQSLKDDPSVSKEILGEAKKLNDAQAPPASPSPAAPAPAPSAASPAPAAPAPAASPAAAACAWSHPQFEK
# notes: also called CID 150570
# B9: IB14 tetramer (SEQ ID NO: 46) (designed binder)
# chain: MPAAKHDKDQQSAFYEILHLPNLTEDQRSAFIQSLKDDPSVSKEILGEAKKLNDAQAPPSAAPAPSAPASAAPAPAPAPAPSPAAPAASPAAKHDKDQQSAFYEILHLPNLTEDQRSAFIQSLKDDPSVSKEILGEAKKLNDAQAPPASPSPAAPAPAPSAASPAPAAPAPAASPAAPAAKHDKDQQSAFYEILHLPNLTEDQRSAFIQSLKDDPSVSKEILGEAKKLNDAQAPPSAAPAPSAPASAAPAPAPAPAPSPAAPAASPAAKHDKDQQSAFYEILHLPNLTEDQRSAFIQSLKDDPSVSKEILGEAKKLNDAQAPPASPSPAAPAPAPSAASPAPAAPAPAASPAAAACAWSHPQFEK
# notes: also called CID 150663
# B10: IB14 hexamer (SEQ ID NO: 47) (designed binder)
# chain: MPAAKHDKDQQSAFYEILHLPNLTEDQRSAFIQSLKDDPSVSKEILGEAKKLNDAQAPPSAAPAPSAPASAAPAPAPAPAPSPAAPAASPAAKHDKDQQSAFYEILHLPNLTEDQRSAFIQSLKDDPSVSKEILGEAKKLNDAQAPPASPSPAAPAPAPSAASPAPAAPAPAASPAAPAAKHDKDQQSAFYEILHLPNLTEDQRSAFIQSLKDDPSVSKEILGEAKKLNDAQAPPSAAPAPSAPASAAPAPAPAPAPSPAAPAASPAAKHDKDQQSAFYEILHLPNLTEDQRSAFIQSLKDDPSVSKEILGEAKKLNDAQAPPASPSPAAPAPAPSAASPAPAAPAPAASPAAPAAKHDKDQQSAFYEILHLPNLTEDQRSAFIQSLKDDPSVSKEILGEAKKLNDAQAPPSAAPAPSAPASAAPAPAPAPAPSPAAPAASPAAKHDKDQQSAFYEILHLPNLTEDQRSAFIQSLKDDPSVSKEILGEAKKLNDAQAPPASPSPAAPAPAPSAASPAPAAPAPAASPAAAACAWSHPQFEK
# notes: also called CID 150772
# B11: IgG binding protein SEQ ID NO: 11 (shuffle sequence IB11) (designed binder)
# chain: NAAQHSKEQQNAFYEILHLPNLTEDQRSAFIQSLKDDPSVSKEILGEAKKLNDAQAPPASPAPSAPSACWSHPQFEK
# B12: IgG binding protein SEQ ID NO: 20 (shuffle sequence IB20) (designed binder)
# chain: ADSKFDEAQQSAFYEILHLPSLTEDQRAAFIQSLKDDPSTSKSLLGEAKKLNDAQAPPASPAPSAPSACWSHPQFEK
# Target: T1, hIgG1-Fc (human, UniProt P01857-1 99-330 = IgG part)
# T1 construct: domain: Fc
# Test: SPR (Biacore), 0-50 nM binder
row,Binder,Kd
1,B1,3.1 nM

# Target: T1, hIgG1-Fc
# Test: SPR (Biacore 3000, CM5 chip, Langmuir 1:1 model)
row,Binder,Kd
1,B2,4.6 nM
2,B3,1.2 nM
3,B4,1.3 nM
4,B5,1.4 nM
5,B6,5.3 nM
6,B7,7.6 nM
7,B1,3 nM
8,B8,0.38 nM
9,B9,0.09 nM
10,B10,0.16 nM

# Target: Cetuximab
# Test: ELISA; antibody coated on plate, binder detected via Strep-tag with Strep-Tactin-HRP
row,Binder,Kd
1,B4,4.9 nM

# Target: Natalizumab
# Test: ELISA; IgG4 antibody coated on plate, binder detected via Strep-tag with Strep-Tactin-HRP
row,Binder,Kd
1,B11,7.1 nM
2,B12,5.4 nM
